# Article PMC10726135
# This is one part of the list. At the low end of the ranking the order means little. The protein was read in a cell extract, so binding may be indirect.
# Target: T1, HNF4alpha2 (COS-7 nuclear extract) (UniProt P41235)
# T1 sequence: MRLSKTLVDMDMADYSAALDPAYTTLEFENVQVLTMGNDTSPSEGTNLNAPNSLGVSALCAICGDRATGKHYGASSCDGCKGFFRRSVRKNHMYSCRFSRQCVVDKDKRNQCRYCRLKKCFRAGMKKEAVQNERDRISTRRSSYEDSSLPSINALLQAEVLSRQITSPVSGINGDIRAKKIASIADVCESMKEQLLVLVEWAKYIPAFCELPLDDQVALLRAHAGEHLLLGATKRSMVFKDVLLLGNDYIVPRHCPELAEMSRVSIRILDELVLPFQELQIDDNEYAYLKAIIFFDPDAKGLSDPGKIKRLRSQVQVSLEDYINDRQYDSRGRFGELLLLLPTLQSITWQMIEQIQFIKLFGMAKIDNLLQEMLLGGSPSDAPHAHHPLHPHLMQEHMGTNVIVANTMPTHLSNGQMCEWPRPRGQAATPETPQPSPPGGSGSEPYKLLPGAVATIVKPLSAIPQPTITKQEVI
# Assay: protein-binding microarray
# Details: COS-7 nuclear extract on double-stranded Agilent 4x180k PBM; binding buffer, salt, pH and temperature not given; high values mean tight binding; double strand, one strand shown; sequences stand for … in …GCCTAGGGAGATTAGAGTATCGGTCGA
row,Sequence,binding signal (log2 normalized intensity)
1,ATTAAGATCAAAGAATTCCTAATAATACTG,-1.17
2,GTGCCGTGAGGGGTTATGGAGAGTGGAAGA,-0.47
3,ATCTTTATCTTTTCACTTTTTCCCTGCATG,0.105
4,TGAGTTCTGTCCTTTGTCCCACATCTGTGA,1.14
5,ACCCTCAGGCTCCACCGGATGGATAGGAAT,-1.17
6,AGGCATACTCCTCCTGGCTTCTGGACTATG,2.56
7,GTCTGATTGGTTGCAGAAGGCAGCCAAACA,-1.23
8,GGGAAAGACTTAGGATCTAGCAAATTTGGG,-0.0294
9,CCCTCCTGAACATAATTGCAAAATCCTTAG,-0.55
10,GCAGCCTCTGAGATGGACTCCAGTGATCTT,1.97
11,TTGGAGGAGGGGGCGGTTAAACATTCAGAT,-1.07
12,CGACCCCTCGAGGCAACCTTTGACCTGGTA,7.48
13,TATTTGAGTTCTTCAAGTCAGTCAAAATGA,1.3
14,GCATTCCAAGAGAGCAAAGTGCTTTTTAAC,0.786
15,GACTTTAGAACCCAAATAGACTTAAGTCTG,-0.295
16,CTTTCATGATCCTTGGCTGTGTGACTCACC,0.913
17,GGAGTTCCATTTAGCTTCAGTCTAAATGAT,-0.0539
18,AATGGCTAAGGGCATCTACTTTTAAAACGC,-1.19
19,TCATTTGGGGCGGGCGGTCGGAGTCCACGT,2.48
20,TAAGTATGACCAGCAGGGTGACCAGTGGAC,1.44
21,ACCTCTCTGATGCCATGATAAGCAGTGTGG,0.855
22,CACTATTGTGCTAATATAAGTCATTGCCAT,1.28
23,ACAACACACCACCTGCTACTCCCTTTGGAA,-1.13
24,ACCTGGGTGTAGGTGCTGCACCTTGAAACC,2.05
25,TGAACAATTGATTTATAGCCTTTTTGCCCA,1.29

row,Sequence,binding signal (log2 normalized intensity)
1,CTTTGTGGCAGGAGGAGCTGTTTGACATCC,0.0869
2,CACTCGCCTGACTCCCTGACGCCATCTGGC,-1.05
3,GCTGCACAGTGGGGAGGGCAGGGTCAGAAC,0.706
4,ACATCCTGGATTCTCAAACCTTCCAAAGTT,-0.184
5,TGCTCACGTTTTCCTGCTGACCCTCTCCCC,3.85
6,ATTTGCTCTGTCATCAACGTATCTGCAGGC,1.22
7,AAGAGCTGAGGAAAAAAGTTTGAAAATGCC,-1.09
8,CGCACCTGCCTGTCTCACCTCGCTATCACC,-0.761
9,AGGGATGGCATCACCTTTGGTCAGCCCACT,1.45
10,GGTCCACCCGTCCGCTTGATGCCTGTTGCT,-0.505
11,GGAAAACAGGCTCAGCAAAGTCAGGTCAGT,-0.872
12,TCACAGTGTGGGGCAAATCTGAGGTCAAAG,2.22
13,AATGCCAAGGACTGAAAGAACACAGCGCAG,-0.993
14,TGAAGATGCCTGATAAAGGGGGCAAAGGGC,5.79
15,TTGTTTATTCAGAGTTAGCTAAGCTTCACT,-1.12
16,GAGCAGTCAAACTGGTTTCTTGTCTGCCCC,3.42
17,AGGGGCTGCTGGGAGTTGTAGTTTTTTGGG,1.54
18,ACCTTGTTTTGTCTTCTGTTTGCAAATGGA,2.54
19,TGCATTCTTGTAGGTTTTTTTTTTTTTTAA,2.29
20,TCTGCTGAGGTGGCTGCAGAGTGGGAGGCC,-1.03
21,CTTTTTTTTTTCAAGTGTTAGCTGTTTCCA,1.22
22,TTCCCTCCACTTCCTTTCTTTCCCTTTCTG,1.48
23,AGGGTTTAAAGGGCAGAAGAAGGGATTTAG,0.769
24,GTTAGATAGAGGAGTCAAGCAAACACACTT,-1.12
25,ACTCCTGGAAAAACCACACACTCCATAACT,-1.03

row,Sequence,binding signal (log2 normalized intensity)
1,TGCACAGGTTCCTCGCCTATGGTATGTATG,1.09
2,TTGAAGCTCCAAGATAGGAATGTACATAAT,1.11
3,CATAGTTGACATTCCATCATTATCCTGTGT,1.68
4,CCCCTGACTACCAGCCAGTAGGAGTTGGAA,0.316
5,ACTTTACAGATAAAGAAACCATAGACCCTA,-1.13
6,AGATAGCTTGAGGCCAGCTCATAGGGATCA,-1.17
7,CACATTCAGCCCACTTCCTACCATCAAAGG,0.638
8,TTTGACCATCCACGGGTCCATGATTGCTGT,1.51
9,GTGAGAGGCGGAACAAGGCTGAAGGGAAGC,-1.08
10,GTAAAAACAGTTATGGATTAAAAGCACATA,-1.08
11,ACTCCAGAACCAAAGTCCTAGAGTCCCTAT,-1.16
12,TAGCAGGTGACAAATCCAGGATCAAATACA,-1.24
13,CTAGGCAATCCCATGACCTTTGTACTAATG,7.57
14,AAGCACTTCAAAGGTCGTGTGCTTATCACA,1.98
15,CAAAGTCCGCTTGCCTGAGGGTCATGACTA,2.26
16,TATGTTGTCCGGACACCAACCTTTGATCAT,5.62
17,CCGGGAATCCTCAGCCTTCTCCGCGGCGGG,-1.18
18,TTTTTGGCCTTTACCCCTTGAGTTTGAACT,3.59
19,CATATTTGCTTAAGCTTTCTGTCTGCAGCT,-1.09
20,GCAGCAGCCGGCCTCTTAACAGATGAGGAC,-1.12
21,TTTGGAAAACTGGCCCTGATTTCAAAGTTC,2.26
22,CAAATGCTTCCAAGAATTTAAGAGAACTAG,-1.15
23,TCGCAGCTGCATAGATAAGAAAGGCTACAA,-1.21
24,CTAAGCAGGCACATTCCAGGACCTTTGCTC,4.08
25,TGGTGGACGTACGCTCCCAGTATGAGCGGC,-0.952

row,Sequence,binding signal (log2 normalized intensity)
1,TTACATGCCTTATCTGGTTCAAAGGTCATT,7.65
2,AAAGCCACCCCTTTCTCCTCTCTTTCCATA,0.557
3,CAATGTGTGACAGAAGTCATGTCTCATTGC,0.776
4,ATGCCAGATGACCTTTGCCCTTGACTTTTT,8.55
5,AGAGGAAAGCCCTAGCTGACTGCGTCAGGC,-1.1
6,CGAGAAGGCAGCCACCCACAAGCCAAGGAG,-1.1
7,GGCGGCGCGGCCGGAGCGGCGGACCCGGCG,-0.781
8,AGGGGAGGCTGAGGTTTTCATCCCAGGGCT,-1.13
9,TTAACCTTTGATCATATGCATTTCCCTAGA,3.08
10,ATCACACAAAACGCACAGAGGCCCCTGATG,-1.03
11,CAGAGGGTGGCAGCAGCAGGCAGGGACTTT,0.922
12,TTGCAGCAAGGAATTCAACCCTTGTCACTT,2.61
13,TAGTCTAGACTTTGCTTTCTTGGAGGTTAA,1.7
14,GACATGCAGTATGGGGACTTTGGACTCCTG,7.53
15,GATTTTGTTGGGGAACTTTGCCCGGATTCC,2.59
16,AAAGGTTAACATTCTTGCTTTCTGACTCTT,1.19
17,GGCAAGCAGGAGCTGGCCTGGTAGGACAGG,-1.1
18,GAGAGTCAACACTGAAATAGCATACCTTTA,-0.915
19,GCCAGGGATTAAAGAATTCGTCCAGGGCCG,-1.04
20,TCCATCAATGAAGCATATCAGTAGTTGCAA,-0.833
21,TAAACAGCATTTGTTTTAAGTTCATAGGTC,4.12
22,GAATGCTGTCCTGCCAGTTGTCATTTGGGG,1.48
23,TGCTGGAGATGAGGCTCAGACCTGACCTTT,6.49
24,TTCTTTATGGACCTTGTCCCTGGATTGTGT,3.55
25,AGCATTTGTTTTAAGTTCATAGGTCCTCTT,2.02

row,Sequence,binding signal (log2 normalized intensity)
1,CCTGGACCCCTCCGGCAGCGGCCGGAAAAA,1.54
2,CCTCGGGTCCCACACACCTCAAATGCAGGT,-1.04
3,CTTAACAAACACAAAAAGCGGACAAACCAG,-1.14
4,AAAGGAATGTGCCTGCAAGTTCAAAAGGAC,1.1
5,ACCCTAGAGATGTACACAGTTCAAAGGGCA,5.52
6,GTTGGAAGCTGATAAGCCAAGAATGTACTC,0.713
7,AAGATAAAGTGTCTCTATTTGGAACCAAGA,0.792
8,ACCAGACTACCTCTTTAGGCTGGACTCTGA,3.96
9,AGTGGACTTTGACCTTGTTTTCAATGACTA,7.31
10,TGTGTCAAAGGTCACTTAGTCCCTAAGTCT,4.3
11,GGGCCAGCAGTGCCCAAAGCCCAAGGGATG,-1.11
12,GGCGTGACCCCCACTGCCTGCCTGCCAACT,2.89
13,ATCAAGGTGGTTTCACTTCAAGATGGCATC,0.985
14,TGTCCACCTTATCTAATGCCCCAAATGACG,2.33
15,TAAATGACCTCTGCCCTTCCACCCACTTTA,4.15
16,TGCTAGAGTACTTGGACTTTAACCTTTAGA,9.24
17,GTCATAAGCTGTGGGATCCAACCAGAGGGA,-1.15
18,CTCTTGCTTCCTGGGATGCATTTGAAACCA,0.504
19,TTCCTATGTAAACACAAGATATTATTAGAC,0.179
20,ATATTCCAAATTCCAGCTGAAGTTCCCAGC,-1.12
21,AATCTGAATTAACTCTTTACACAGTTCTGA,-0.00196
22,TAGACTCCAGGCTTGTCCTTTTGACCACAG,2.34
23,GCTCTGCATCCTTCCCTAAGCAGCTGCAGT,-1.1
24,ACCTTCTACCGTACCTAGGACAAAGCAAAC,-1.01
25,AAAGTTCACCACTTTTGCAATGTTTCCAAA,-0.312

row,Sequence,binding signal (log2 normalized intensity)
1,GGAATGAGCAGGAACCTTGTGGTGGTGAAA,1.01
2,GCTGGAACAGGCTGGGACACGCCTGCCCTC,1.35
3,CCTTCACCAGAGCCGTCTGGTAAATTTCTA,-0.574
4,ATTTTAGGAGCCTCCAATCAGGACAGACTG,-1.23
5,GTGTTCACACCACACTCTCCTCCTGGCCTC,-0.932
6,ACATGACCACCTGGTTTAAGTCACTATCAA,-0.506
7,TGTGTTTCTCAATGTCTTTCCTGCAGAGGG,1.21
8,TTGCTGACCCCCTACATAGAGAGCAGTCTT,2.53
9,GATGGTAACCACACCAAGGGGCCCCCACTT,-1.11
10,CCAAGACCTTTGAAGCTTGCAACAAAGGGG,-0.648
11,AATGTTATTTATCCAGCTGGGTATACTGAC,0.8
12,AAGTCTGAAATCTACAGGACAGCCAGGCAG,-1.21
13,AAAGGCAGCCCCTTATCAGGAGAGGAGGCC,-1.07
14,CTGGACAGGTCCAAGGTTCTCCAGGGACCC,0.952
15,TGCCTCAGTAGTAGTGAAAAATGAATAACT,-0.751
16,CCCAGAGGCTGGTCAGAATTCCATCCCAGG,-1.11
17,ATTAAGCAAGATATGTGCCTGCCTTATACA,0.217
18,ATTGCCAAGGGGGTGGTGAAATGGGGGAAG,-1.09
19,CTGACCAGCTCCAAAGTCCGCCACTAGCAA,-0.153
20,GTTTATCTGCCTGTGGATAGCTGGCATGCA,-1.09
